Source: PubChem BioAssay AID686978 (National Center for Advancing Translational Sciences (NCATS), 2013)
Values joined by “and” are separate entries in the source; they are usually repeats but may differ in a detail not shown here. Identical values can stand only once. Screen size: about 420,000 compounds; about 64,000 (15%) were called active. Inconclusive means that the source gave no clear call. Such entries were picked first, then a sample of the others. Calls come from the whole dose curve; as a rule, active = well fitted inhibition curve with a large enough effect; inconclusive = small, poorly fitted or top-dose-only effect; inactive = flat fitted curve, though single readings scatter. Where the call is inconclusive, the potency comes from a doubtful curve fit.

Experiment: qHTS for Inhibitors of human tyrosyl-DNA phosphodiesterase 1 (TDP1): qHTS in cells in absence of CPT; note: nearly all actives have a fitted effect of over 55% in size
Settings: DT40 Tdp1-/- hTDP1 cells, no CPT, ATP luminescence, 48 h; activity change, negative = growth inhibition: at 46.2 µM (top of the series)
In short: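 Cells were dispensed at 400 per well, compounds added by pin tool, plates incubated ≥48 hr at 37 °C, then CellTiter-Glo added for 30 min at room temperature before luminescence reading. Line: DT40 Tdp1-/- complemented with hTDP1; camptothecin omitted.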
% is set by controls: 0 for no effect and ±100 for the full control effect; potency is the fitted concentration of half-maximal effect; tags give direction and shape of the fitted curve.

| SMILES | Potency | activity change, negative = growth inhibition |
| --- | --- | --- |
| Cc1ccc(OC(C)C(=O)NCC2(N3CCOCC3)CCCCC2)cc1C (stereo unspecified) | inconclusive: 32.6 µM [inhibitor, partial curve, poor fit] |  |
| COc1ccc(-n2nc(C(=O)NCC(=O)N3CCCC(C)C3)c3ccccc3c2=O)cc1Cl (stereo unspecified) | inconclusive: 16.4 µM [inhibitor, partial curve] |  |
| Fc1cccc(CSc2ccc(-c3ccc4c(c3)OCO4)nn2)c1 | inactive |  |
| O=C(Nc1nc(-c2nc3ccccc3s2)cs1)C1COc2ccccc2O1 (stereo unspecified) | inconclusive: 29.1 µM [inhibitor, single point] |  |
| Clc1ccccc1-c1nnn(Cc2ccc(-c3nn[nH]n3)cc2)n1 | inconclusive: 23.1 µM [inhibitor, single point] |  |
| Cc1ccccc1-c1cc2nc(NCCc3ccncc3)n(C)c(=O)c2s1 | active: 14.6 µM |  |
| CCN(CC)S(=O)(=O)c1cnccc1N1CCN(c2cccc(Cl)c2)CC1 | active: 16.4 µM |  |
| COc1ccc(C2Nc3ccccc3C(=O)N2Cc2ccccc2)cc1 (stereo unspecified) | inconclusive: 29.1 µM [inhibitor, single point] |  |
| COC(=O)COc1ccc(-c2ccc(F)cc2)cc1C=O | inconclusive: 14.6 µM [inhibitor, partial curve] |  |
| Cn1nc(-c2ccc(Cl)cc2)cc1NC(=O)Nc1ccccc1 | inconclusive: 29.1 µM [inhibitor, single point] |  |
| O=C(CN1CCN(C(=O)c2ccco2)CC1)Nc1ccccc1 | inactive |  |
| O=C(NC1CCCc2ccccc21)C1CCCO1 (stereo unspecified) | inactive |  |
| O=C(NCCC1=CCCCC1)C1CCN(S(=O)(=O)c2ccccc2C(F)(F)F)CC1 | inconclusive: 20.6 µM [inhibitor, single point] |  |
| CCOc1ccc(-n2c(SC(C)C(=O)OC)nc3c([nH]c4ccccc43)c2=O)cc1 (stereo unspecified) | inconclusive: 2.06 µM [inhibitor, partial curve, poor fit] |  |
| CCN1CCN(c2cc(N3CCN(C(=O)c4ccco4)CC3)c3c4c(onc24)-c2ccccc2C3=O)CC1 | active: 9.2 µM |  |
| COc1ccc(Cl)cc1NC(=O)c1nc(S(C)(=O)=O)ncc1N(Cc1ccc(C)cc1)Cc1ccco1 | active: 9.2 µM |  |
| CCc1ccc(NS(=O)(=O)c2cccc3nonc23)cc1 | inconclusive: 18.4 µM [inhibitor, single point] |  |
| Cc1cccc(-c2noc(-c3csc([C@@H]4C[C@H](O)[C@@H](CO)O4)n3)n2)c1 | inconclusive: 29.1 µM [inhibitor, single point] |  |
| Cc1ccc(C)c(NC(=O)Cn2c(=O)oc3cc(S(=O)(=O)NCc4ccccc4)ccc32)c1 | active: 8.2 µM |  |
| COc1ccc(S(=O)(=O)N2CCCC(C(=O)N3CCN(Cc4ccccc4)CC3)C2)cc1Cl (stereo unspecified) | active: 14.6 µM |  |
| COc1ccc(Br)cc1CN1CCN(C(=O)c2cccc(F)c2)CC1 | inconclusive: 20.6 µM [inhibitor, partial curve] |  |
| Cc1cccn2c1nc(=S)n2C(=O)c1ccco1 | inconclusive: 29.1 µM [inhibitor, single point] |  |

| SMILES | Potency | activity change, negative = growth inhibition |
| --- | --- | --- |
| CCOC(=O)c1c(NC(=O)/C=C/c2ccc(OC)cc2)sc2c1CCC(C)C2 (stereo unspecified) | inactive |  |
| NC[C@H](O)c1ccc(O)c(O)c1 | inactive and inconclusive: 29.1 µM [inhibitor, single point] |  |
| COc1ccc2cc(S(=O)(=O)NCc3cccnc3)ccc2c1 | active: 8.2 µM |  |
| O=S(=O)(O)c1cc(O)c(N=Nc2ccc(O)cc2O)c2ccccc12 | inconclusive: 7.31 µM [inhibitor, partial curve] |  |
| O=C(NN=C1c2ccccc2-c2ccccc21)c1ccccn1 | inconclusive: 14.6 µM [inhibitor, partial curve, poor fit] |  |
| CC(C)C[C@@H]1CC2=C(C(=O)OC(C)(C)O2)[C@H](CCc2ccccc2)O1 | inconclusive: 29.1 µM [inhibitor, single point] |  |
| Cc1nn(-c2ccccc2)c2[nH]c(=O)c(CNCC3CCCO3)cc12 (stereo unspecified) | inactive |  |
| O=c1cc(C(Cl)(Cl)Cl)oc2c1ccc1ccccc12 | active: 0.517 µM |  |
| CC(=O)NNC(=O)CN1C(=O)/C(=C/c2ccccc2)SC1=S | inactive |  |
| COc1ccc(C2=Nc3cc(C)ccc3OC2)cc1 | inconclusive: 29.1 µM [inhibitor, single point] |  |
| COc1ccc(-c2oc3ccc(-c4ccc(OC)nc4)cc3c2-c2ccc(OC)cc2)cc1 | active: 14.6 µM |  |
| Fc1ccc(-c2nnc(CN3CCC(c4nc5ccccc5s4)CC3)o2)cc1 | inconclusive: 29.1 µM [inhibitor, single point] |  |
| C[C@H]1CN([C@@H](C)CO)C(=O)CCCn2nncc2CO[C@H]1CN(C)C(=O)Cc1ccccc1 | inactive |  |
| COc1ccccc1NS(=O)(=O)c1cc(N)ccc1N1CCCC1 | inconclusive: 20.6 µM [inhibitor, single point] |  |
| CCCCOc1ccc(C(=O)NCCN2CCC(n3c(=O)[nH]c4ccccc43)CC2)cc1 | inconclusive: 20.6 µM [inhibitor, single point] |  |
| Cc1ccc(CSCC(=O)N/N=C/c2ccc(OCC(=O)Nc3ccc(C)cc3)cc2)cc1 | inconclusive: 29.1 µM [inhibitor, single point] |  |
| Cc1ccccc1C(=O)Nc1sc2c(c1C(=O)N1CCC(C)CC1)CCCC2 | inconclusive: 29.1 µM [inhibitor, single point] |  |
| O=C(Cc1ccccc1)Nc1nc(=O)c2ccccc2s1 | inconclusive: 20.6 µM [inhibitor, single point] |  |
| O=C(/C=C1\NCC2c3ccccc3CCN2C1=O)c1ccccc1 (stereo unspecified) | inconclusive: 14.6 µM [inhibitor, partial curve] |  |
| COc1cc(/C=N/NC(=S)NC2CC3C=CC2C3)cc(OC)c1OC (stereo unspecified) | inconclusive: 29.1 µM [inhibitor, single point] |  |
| COC(=O)C=C1CCC2C3CCC4=CC(=O)CCC4(C)C3C(=O)CC12C (stereo unspecified) | inconclusive: 18.4 µM [inhibitor, single point] |  |
| Cc1cc(SCC(=O)N/N=C/c2ccc(O)cc2O)c(C)cc1Br | inconclusive: 20.6 µM [inhibitor, single point] |  |

| SMILES | Potency | activity change, negative = growth inhibition |
| --- | --- | --- |
| CC(=O)c1c(C)[nH]c(C(=O)OC(C)C(=O)NC2CCCCC2)c1C (stereo unspecified) | inconclusive: 7.31 µM [inhibitor, full curve, poor fit] |  |
| C[C@H]1CN([C@@H](C)CO)C(=O)CCCn2cc(nn2)CO[C@@H]1CN(C)C(=O)c1cc(-c2ccccc2)on1 | inconclusive: 25.9 µM [inhibitor, single point] |  |
| O=C(c1ccco1)N1CCN(C(=O)c2cc(-c3ccccn3)nc3ccccc23)CC1 | inconclusive: 29.1 µM [inhibitor, partial curve, poor fit] |  |
| C[C@H](CO)N1C[C@H](C)[C@@H](CN(C)C(=O)Nc2ccc(C(F)(F)F)cc2)Oc2c(NC(=O)Nc3ccccc3)cccc2C1=O | inconclusive: 18.4 µM [inhibitor, single point] |  |
| CCCCn1nc(NC(=O)c2cccc(Cl)c2)c2cc3ccc(C)cc3nc21 | inconclusive: 29.1 µM [inhibitor, single point] |  |
| CC(C)(C)c1ccc(OCC(=O)NC(Cc2c[nH]c3ccccc23)C(=O)O)cc1 (stereo unspecified) | inactive |  |
| O=C(Nc1ccc(S(=O)(=O)N2CCOCC2)cc1)c1cccc(Br)c1 | inactive |  |
| CCCCN1C(=O)C(CC(=O)NC(c2ccccc2)c2ccccc2)CC(C(=O)N(C(C)C)C(C)C)=C1C (stereo unspecified) | active: 20.6 µM |  |
| Cc1cc(C(=O)Nc2ccc(S(=O)(=O)N3CCOCC3)cc2)c(C)o1 |  | inconclusive: -32.3% [inhibitor] |
| COc1cccc(CNC(=O)CCCn2c(=O)c3cccn3c3cccnc32)c1OC | inconclusive: 2.06 µM [inhibitor, full curve] |  |
| CCOC(=O)N1CCN(C(=O)CCCCCn2c(=S)[nH]c3cc4c(cc3c2=O)OCO4)CC1 | inconclusive: 29.1 µM [inhibitor, single point] |  |
| COc1ccc(NC(=O)CSC2=C(C#N)C(c3ccco3)C(C(=O)Nc3nc4ccccc4s3)=C(C)N2)cc1 (stereo unspecified) | inconclusive: 23.1 µM [inhibitor, single point] |  |
| O=C(Nc1ccc(F)cc1F)c1cc2ccccc2oc1=O | inconclusive: 29.1 µM [inhibitor, single point] |  |
| CCCCc1cn([C@@H](CCCCNC(=O)OC(C)(C)C)C(=O)N2CCN(C(=O)OC(C)(C)C)CC2)nn1 | inconclusive: 18.4 µM [inhibitor, partial curve] |  |
| COc1ccc(-c2nc(C(F)(F)F)c(OC)o2)cc1OC | inconclusive: 13 µM [inhibitor, partial curve, poor fit] |  |
| O=S(=O)(Nc1ccc(N2CCCCC2)cc1)c1ccccc1 | inconclusive: 29.1 µM [inhibitor, single point] |  |
| COc1ccc(C2N(S(=O)(=O)c3ccc(C)cc3)CCN2S(=O)(=O)c2ccc(C)cc2)cc1 | inconclusive: 11.6 µM [inhibitor, partial curve] |  |
| Cc1ccc(S(=O)(=O)NCC(=O)N(CC(=O)NCC2CCCO2)CC2CCCO2)cc1 (stereo unspecified) | inactive |  |
| O=C(C(c1ccccc1)c1ccccc1)N1CCN(Cc2ccccn2)CC1 | inconclusive: 18.4 µM [inhibitor, partial curve] |  |
| CC(=O)c1ccc(-c2ccc(C(=O)N(C)Cc3nc4ccccc4c(=O)[nH]3)o2)cc1 | active: 23.1 µM |  |
| Cc1c(C(=O)NCC2CCCN(C)C2)cnn1-c1nccc(-c2ccco2)n1 (stereo unspecified) | inactive |  |
| O=C(COc1cccc2ccccc12)NNC(=O)Nc1ccccc1 | inconclusive: 25.9 µM [inhibitor, single point] |  |
